{"source": "PubChem BioAssay AID1508623", "about": "(National Center for Advancing Translational Sciences (NCATS), 2021)", "note": "Where “and” joins values, the source holds several entries; their conditions need not be identical. Equal values may be shown once. The campaign covered roughly 48,000 compounds. About 450 (0.94%) were called active. Inconclusive means that the source gave no clear call. Such entries were picked first, then a sample of the others. Calls follow the shape of the dose curve; as a rule, active = well fitted inhibition curve with a large enough effect; inconclusive = small, poorly fitted or top-dose-only effect; inactive = no such curve, though single readings can be large or run the other way. Where the call is inconclusive, the potency comes from a doubtful curve fit. Potency is read from the fitted curve at half-maximal effect; tags tell the direction and shape of the fitted curve.", "data": [{"experiment": "Primary qHTS for Identification of Small Molecule Inhibitors of Huntingtin Promoter Activity; also: nearly all actives have a fitted effect of over 50% in size", "settings": "HEK293 HTT promoter firefly luciferase reporter (activity 0% = vehicle and -100% = no light), 24 h; series mostly up to 57.5 µM", "outline": "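HEK293 luciferase promoter-reporter cells (2,500/well) plated 24 h, then compounds added at up to 57.5 uM final for 24 h at 37 °C. Firefly luminescence by Dual-Glo, normalized to vehicle (0%) and zero RLU (-100%).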", "values": [{"smiles": "CCCNS(=O)(=O)c1ccc2nc(NC(=O)c3ccc(F)cc3)sc2c1", "Potency": "inconclusive: 10 µM [inhibitor, partial curve, poor fit]"}, {"smiles": "Oc1cccc(-c2nc(N3CCOCC3)c3oc4ncccc4c3n2)c1", "Potency": "inconclusive: 2.5 µM [inhibitor, full curve, poor fit]"}, {"smiles": "COc1ccc(CNC(=O)c2ccc(NC(=O)N3CC4CCCN4c4ccccc43)cc2)cc1", "note": "(stereo not given)", "Potency": "inconclusive: 15.8 µM [inhibitor, partial curve, poor fit]"}, {"smiles": "Cc1ccc(-n2ncc(C(=O)NCCc3ccccc3)c2C2CCN(C(=O)OC(C)(C)C)CC2)c(C)c1", "Potency": "inconclusive: 39.8 µM [inhibitor, single point]"}, {"smiles": "Cc1ccc(CSc2nnc(-n3c(=O)c(C#N)cc4c(=O)n5cccc(C)c5nc43)s2)cc1", "Potency": "inactive"}, {"smiles": "O=C(CC1(O)C(=O)N(CCc2ccccc2)c2ccc(Br)cc21)c1ccc(F)cc1", "note": "(stereo not given)", "Potency": "inconclusive: 25.1 µM [inhibitor, partial curve, poor fit]"}, {"smiles": "Nc1c(C(=O)NCc2ccc(Cl)cc2Cl)nnn1Cc1ccc(Br)cc1", "Potency": "inconclusive: 39.8 µM [inhibitor, partial curve, poor fit]"}, {"smiles": "COc1ccc(OCC(=O)Nc2cc(-c3ccccc3F)nn2-c2ccccc2)cc1", "Potency": "inactive"}, {"smiles": "CCc1ccc(CNC(=O)c2cc3cc(S(=O)(=O)N4CCCCC4)ccc3n2C)cc1", "Potency": "inconclusive: 12.6 µM [inhibitor, partial curve, poor fit]"}, {"smiles": "CCCn1ccc2c(OCC(=O)Nc3cc(C)ccc3C)cccc2c1=O", "Potency": "inconclusive: 11.2 µM [inhibitor, partial curve]"}, {"smiles": "Cc1cc(SCc2sc(-c3ccc(C(F)(F)F)cc3)nc2C)ccc1OCC(=O)O", "Potency": "inactive"}, {"smiles": "Cc1ccc2nc(NC(=O)CSc3nc4c(c(=O)n3-c3ccccc3)SCC4)sc2c1", "Potency": "inconclusive: 17.2 µM [inhibitor, partial curve]"}, {"smiles": "CCCCn1cc2c(c1-c1ccccc1Br)c(=O)n(C)c(=O)n2C", "Potency": "inactive"}, {"smiles": "CCc1nn(C(C)C(=O)N2CCN(c3cccc(C(F)(F)F)c3)CC2)c(=O)c2cc3occc3n12", "note": "(stereo not given)", "Potency": "inconclusive: 25.1 µM [inhibitor, partial curve, poor fit]"}, {"smiles": "Cc1ccc(Cn2cc(C(=O)c3ccc(F)cc3)c(=O)c3cc4c(cc32)OCCO4)cc1", "Potency": "inconclusive: 39.8 µM [inhibitor, single point]"}, {"smiles": "CCc1ccccc1NC(=O)CSCc1cnn(-c2ccccc2)c1-n1cccc1", "Potency": "inconclusive: 31.6 µM [inhibitor, single point]"}, {"smiles": "COc1cc(OC)c(NC(=O)CC(c2cccs2)N2Cc3ccccc3C2=O)cc1Cl", "note": "(stereo not given)", "Potency": "inactive"}, {"smiles": "Cc1ccccc1Nc1sc(C(=O)c2ccccc2)c(N)c1C(=O)NCc1ccc(Cl)cc1", "Potency": "inconclusive: 25.1 µM [inhibitor, partial curve, poor fit]"}, {"smiles": "CCOc1ccc(NC(=O)Cn2c(=O)n(-c3ccccc3)c(=O)c3ccc(C(=O)NCc4ccc5c(c4)OCO5)cc32)cc1", "Potency": "inconclusive: 39.8 µM [inhibitor, single point]"}, {"smiles": "Cc1cc(-c2ccc(C)c(S(=O)(=O)NC3CCCCC3)c2)on1", "Potency": "inconclusive: 25.1 µM [inhibitor, single point]"}, {"smiles": "CCOc1ccc(-n2ccnc2SCC(=O)Nc2nc3ccc(C)cc3s2)cc1", "Potency": "inconclusive: 35.5 µM [inhibitor, partial curve]"}, {"smiles": "CC1(C)C(=O)N(CC(=O)Nc2cccc(F)c2)c2ccc(S(=O)(=O)N3CCCCC3)cc21", "Potency": "inconclusive: 35.5 µM [inhibitor, partial curve, poor fit]"}, {"smiles": "O=C(CSc1nccn1C1CCCC1)Nc1ccc(C(F)(F)F)cc1", "Potency": "inconclusive: 39.8 µM [inhibitor, single point]"}, {"smiles": "O=C(Nc1cccc(F)c1)[C@H](CSCc1ccccc1)N1Cc2ccccc2C1=O", "Potency": "inconclusive: 35.5 µM [inhibitor, partial curve, poor fit]"}, {"smiles": "COc1ccc(NC(=O)C2CCN(S(=O)(=O)c3ccc4[nH]c5c(c4c3)CCCCC5)CC2)cc1", "Potency": "inconclusive: 3.98 µM [inhibitor, partial curve, poor fit]"}, {"smiles": "CCCCOc1cccc(C(=O)Nc2cccc(-c3nc4ncccc4o3)c2C)c1", "Potency": "inconclusive: 39.8 µM [inhibitor, single point]"}, {"smiles": "C=C1c2cccc(O)c2C(O)=C2C(=O)[C@@]3(O)C(O)=C(C(N)=O)C(=O)[C@@H](N(C)C)[C@@H]3[C@@H](O)[C@H]12", "Potency": "inconclusive: 7.69 µM [inhibitor, partial curve]"}, {"smiles": "Cc1oc(-c2ccc(C(=O)NCc3ccc(Cl)cc3)cc2)nc1CS(=O)(=O)c1ccccc1", "Potency": "inconclusive: 22.4 µM [inhibitor, partial curve]"}, {"smiles": "CC(C)c1ccc(N2C(=O)CS(=O)(=O)C23C(=O)N(Cc2cccc(F)c2)c2ccccc23)cc1", "note": "(stereo not given)", "Potency": "inconclusive: 22.4 µM [inhibitor, partial curve]"}, {"smiles": "Cc1cc2c(C(C)C)c(O)c(O)c(C=O)c2c(O)c1-c1c(C)cc2c(C(C)C)c(O)c(O)c(C=O)c2c1O", "Potency": "inconclusive: 8.91 µM [inhibitor, partial curve, poor fit] and inconclusive: 10.9 µM [inhibitor, full curve]"}, {"smiles": "Cc1ccc(C)c(NC(=O)c2cc(S(=O)(=O)N3CCCc4ccccc43)ccc2F)c1", "Potency": "inconclusive: 39.8 µM [inhibitor, single point]"}, {"smiles": "COc1ccccc1CCNC(=O)c1ccc(-c2nc(CSc3ccc(C)cc3)c(C)o2)cc1", "Potency": "inconclusive: 25.1 µM [inhibitor, partial curve, poor fit]"}, {"smiles": "CCC1CN(C(=O)N2CCC(C(=O)NCCc3ccccc3Cl)CC2)c2cc(C)ccc2O1", "note": "(stereo not given)", "Potency": "inconclusive: 20 µM [inhibitor, single point]"}, {"smiles": "CCCC(O)c1nc2ccccc2n1Cc1ccccc1OC", "note": "(stereo not given)", "Potency": "inconclusive: 35.5 µM [inhibitor, partial curve, poor fit]"}, {"smiles": "Cc1cccc(C(C)C)c1NC(=O)C1CCCN1S(=O)(=O)c1cccc2nsnc12", "note": "(stereo not given)", "Potency": "inconclusive: 35.5 µM [inhibitor, partial curve, poor fit]"}]}]}
